Laboratory results taken from publication PMC9911399, “Two distinct binding modes provide the RNA-binding protein RbFox with extraordinary sequence specificity”.
Positions count from the first letter of the chain named. This is one part of the list.

T1: RBFOX1 RRM RbFoxmut (Fox-RRM*) (Homo sapiens, UniProt Q9NWB1 109-208, R118D;E147R;N151S;E152T)
T1 sequence: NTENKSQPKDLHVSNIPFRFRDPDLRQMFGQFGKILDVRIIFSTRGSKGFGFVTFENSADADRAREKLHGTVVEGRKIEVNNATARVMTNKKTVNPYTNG

B1: UCAACUC (DNA:RNA)
RNA: GGGAGACCGGAAUUCAGAUUGUCCUCAACUCUUAAAUCCCGUCGUAGCCACCA
DNA 1: CAATCTGAATTCCGGTCTCCC
DNA 2: TGGTGGCTACGACGGGATT
B2: AGUCUGA (DNA:RNA)
RNA: GGGAGACCGGAAUUCAGAUUGUCCAGUCUGAUUAAAUCCCGUCGUAGCCACCA
DNA 1: CAATCTGAATTCCGGTCTCCC
DNA 2: TGGTGGCTACGACGGGATT
B3: UCUCGCG (DNA:RNA)
RNA: B2 RNA with A25U, G26C, U29G, G30C, A31G
DNA 1: CAATCTGAATTCCGGTCTCCC
DNA 2: TGGTGGCTACGACGGGATT
B4: AAAUCUU (DNA:RNA)
RNA: B1 RNA with U25A, C26A, A28U, C31U
DNA 1: CAATCTGAATTCCGGTCTCCC
DNA 2: TGGTGGCTACGACGGGATT
B5: UCUCUCC (DNA:RNA)
RNA: B2 RNA with A25U, G26C, G30C, A31C
DNA 1: CAATCTGAATTCCGGTCTCCC
DNA 2: TGGTGGCTACGACGGGATT
B6: GUAGAGA (DNA:RNA)
RNA: B2 RNA with A25G, G26U, U27A, C28G, U29A
DNA 1: CAATCTGAATTCCGGTCTCCC
DNA 2: TGGTGGCTACGACGGGATT
B7: ACCCCGG (DNA:RNA)
RNA: B2 RNA with G26C, U27C, U29C, A31G
DNA 1: CAATCTGAATTCCGGTCTCCC
DNA 2: TGGTGGCTACGACGGGATT
B8: UAGUGAU (DNA:RNA)
RNA: B1 RNA with C26A, A27G, A28U, C29G, U30A, C31U
DNA 1: CAATCTGAATTCCGGTCTCCC
DNA 2: TGGTGGCTACGACGGGATT
B9: CAAUAGG (DNA:RNA)
RNA: B2 RNA with A25C, G26A, U27A, C28U, U29A, A31G
DNA 1: CAATCTGAATTCCGGTCTCCC
DNA 2: TGGTGGCTACGACGGGATT
B10: CUAUUCG (DNA:RNA)
RNA: B2 RNA with A25C, G26U, U27A, C28U, G30C, A31G
DNA 1: CAATCTGAATTCCGGTCTCCC
DNA 2: TGGTGGCTACGACGGGATT
B11: AAGGGAA (DNA:RNA)
RNA: B2 RNA with G26A, U27G, C28G, U29G, G30A
DNA 1: CAATCTGAATTCCGGTCTCCC
DNA 2: TGGTGGCTACGACGGGATT
B12: UGUAAAG (DNA:RNA)
RNA: B2 RNA with A25U, C28A, U29A, G30A, A31G
DNA 1: CAATCTGAATTCCGGTCTCCC
DNA 2: TGGTGGCTACGACGGGATT
B13: CUAUCCU (DNA:RNA)
RNA: B1 RNA with U25C, C26U, A28U, U30C, C31U
DNA 1: CAATCTGAATTCCGGTCTCCC
DNA 2: TGGTGGCTACGACGGGATT
B14: UGUAAGC (DNA:RNA)
RNA: B2 RNA with A25U, C28A, U29A, A31C
DNA 1: CAATCTGAATTCCGGTCTCCC
DNA 2: TGGTGGCTACGACGGGATT
B15: UUGUCAC (DNA:RNA)
RNA: B1 RNA with C26U, A27G, A28U, U30A
DNA 1: CAATCTGAATTCCGGTCTCCC
DNA 2: TGGTGGCTACGACGGGATT
B16: GAGCCAC (DNA:RNA)
RNA: B1 RNA with U25G, C26A, A27G, A28C, U30A
DNA 1: CAATCTGAATTCCGGTCTCCC
DNA 2: TGGTGGCTACGACGGGATT
B17: CGCCAAA (DNA:RNA)
RNA: B2 RNA with A25C, U27C, U29A, G30A
DNA 1: CAATCTGAATTCCGGTCTCCC
DNA 2: TGGTGGCTACGACGGGATT
B18: ACCACCU (DNA:RNA)
RNA: B1 RNA with U25A, A27C, U30C, C31U
DNA 1: CAATCTGAATTCCGGTCTCCC
DNA 2: TGGTGGCTACGACGGGATT
B19: CAUCCCG (DNA:RNA)
RNA: B2 RNA with A25C, G26A, U29C, G30C, A31G
DNA 1: CAATCTGAATTCCGGTCTCCC
DNA 2: TGGTGGCTACGACGGGATT
B20: CUGGGUA (DNA:RNA)
RNA: B2 RNA with A25C, G26U, U27G, C28G, U29G, G30U
DNA 1: CAATCTGAATTCCGGTCTCCC
DNA 2: TGGTGGCTACGACGGGATT
B21: UUCGCGU (DNA:RNA)
RNA: B1 RNA with C26U, A27C, A28G, U30G, C31U
DNA 1: CAATCTGAATTCCGGTCTCCC
DNA 2: TGGTGGCTACGACGGGATT
B22: AUGCCUG (DNA:RNA)
RNA: B2 RNA with G26U, U27G, U29C, G30U, A31G
DNA 1: CAATCTGAATTCCGGTCTCCC
DNA 2: TGGTGGCTACGACGGGATT
B23: UAGGACU (DNA:RNA)
RNA: B1 RNA with C26A, A27G, A28G, C29A, U30C, C31U
DNA 1: CAATCTGAATTCCGGTCTCCC
DNA 2: TGGTGGCTACGACGGGATT
B24: ACGACAA (DNA:RNA)
RNA: B1 RNA with U25A, A27G, U30A, C31A
DNA 1: CAATCTGAATTCCGGTCTCCC
DNA 2: TGGTGGCTACGACGGGATT
B25: AUGGUUU (DNA:RNA)
RNA: B2 RNA with G26U, U27G, C28G, G30U, A31U
DNA 1: CAATCTGAATTCCGGTCTCCC
DNA 2: TGGTGGCTACGACGGGATT
B26: CCCACCC (DNA:RNA)
RNA: B1 RNA with U25C, A27C, U30C
DNA 1: CAATCTGAATTCCGGTCTCCC
DNA 2: TGGTGGCTACGACGGGATT
B27: GGACCAG (DNA:RNA)
RNA: B2 RNA with A25G, U27A, U29C, G30A, A31G
DNA 1: CAATCTGAATTCCGGTCTCCC
DNA 2: TGGTGGCTACGACGGGATT
B28: GCCUUGC (DNA:RNA)
RNA: B2 RNA with A25G, G26C, U27C, C28U, A31C
DNA 1: CAATCTGAATTCCGGTCTCCC
DNA 2: TGGTGGCTACGACGGGATT
B29: CAAAAUA (DNA:RNA)
RNA: B1 RNA with U25C, C26A, C29A, C31A
DNA 1: CAATCTGAATTCCGGTCTCCC
DNA 2: TGGTGGCTACGACGGGATT
B30: AAUGAGA (DNA:RNA)
RNA: B2 RNA with G26A, C28G, U29A
DNA 1: CAATCTGAATTCCGGTCTCCC
DNA 2: TGGTGGCTACGACGGGATT
B31: UAGAGUA (DNA:RNA)
RNA: B1 RNA with C26A, A27G, C29G, C31A
DNA 1: CAATCTGAATTCCGGTCTCCC
DNA 2: TGGTGGCTACGACGGGATT

What follows are binders tested against T1, RBFOX1 RRM RbFoxmut (Fox-RRM*) (assay: EMSA; HiTS-Eq, 1 nM pool, 10 min; buffer printed only for the single-RNA assays: 10 mM Tris pH 7.5, 150 mM NaCl, 3.4 mM EDTA, 0.001% NP-40, 30 C). Settings: tags: His6 N-terminal (pET28a); label: 5' 32P.
Method in brief: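 These values rest on relative association constants, computed from read-count changes of each RNA species versus the control reaction and normalised to the cognate motif. Reads came from free RNA recovered by 8% native PAGE after purified RbFox RRM (wild type or mutant) at increasing concentrations was equilibrated for 10 min in 50 µL with 1 nM of a 5′-radiolabelled pool with 7 randomized nucleotides and DNA-annealed flanks.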

| Binder | binding signal |
| --- | --- |
| B1 | 0.0504 KA relative to UGCAUGU |
| B2 | 0.0658 KA relative to UGCAUGU |
| B3 | 0.123 KA relative to UGCAUGU |
| B4 | 0.0581 KA relative to UGCAUGU |
| B5 | 0.0318 KA relative to UGCAUGU |
| B6 | 0.102 KA relative to UGCAUGU |
| B7 | 0.0837 KA relative to UGCAUGU |
| B8 | 0.0898 KA relative to UGCAUGU |
| B9 | 0.0688 KA relative to UGCAUGU |
| B10 | 0.085 KA relative to UGCAUGU |
| B11 | 0.129 KA relative to UGCAUGU |
| B12 | 0.112 KA relative to UGCAUGU |
| B13 | 0.075 KA relative to UGCAUGU |
| B14 | 0.111 KA relative to UGCAUGU |
| B15 | 0.0644 KA relative to UGCAUGU |
| B16 | 0.089 KA relative to UGCAUGU |

| Binder | binding signal |
| --- | --- |
| B17 | 0.101 KA relative to UGCAUGU |
| B18 | 0.126 KA relative to UGCAUGU |
| B19 | 0.0771 KA relative to UGCAUGU |
| B20 | 0.201 KA relative to UGCAUGU |
| B21 | 0.135 KA relative to UGCAUGU |
| B22 | 0.246 KA relative to UGCAUGU |
| B23 | 0.053 KA relative to UGCAUGU |
| B24 | 0.0783 KA relative to UGCAUGU |
| B25 | 0.0963 KA relative to UGCAUGU |
| B26 | 0.0705 KA relative to UGCAUGU |
| B27 | 0.103 KA relative to UGCAUGU |
| B28 | 0.387 KA relative to UGCAUGU |
| B29 | 0.111 KA relative to UGCAUGU |
| B30 | 0.0825 KA relative to UGCAUGU |
| B31 | 0.131 KA relative to UGCAUGU |
